Laboratory results from PubChem BioAssay AID493208 (National Center for Advancing Translational Sciences (NCATS), 2011).
Out of some 44,000 compounds screened, about 340 (0.77%) were called active. Not shown: some 5% with an inconclusive outcome. Calls follow the shape of the dose curve; as a rule, active = well fitted inhibition curve with a large enough effect; inconclusive = small, poorly fitted or top-dose-only effect; inactive = flat fitted curve, though single readings scatter. The list shows a part of the results.

Experiment: Acumen qHTS Assay for Inhibitors of the mTORC1 Signaling Pathway in MEF (Tsc2-/-, p53-/-) Cells: Sytravon;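 also: plate controls were DMSO for no effect and rapamycin for full effect; nearly all actives have a fitted effect of over 50% in size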
Conditions: phospho-rpS6 immunofluorescence/PI, 24 h; series mostly up to 38.3 µM; activity change, negative = inhibition: at the top concentration
Summary of the method: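 Immunofluorescence of rpS6 phosphorylation in Tsc2-/-, p53-/- MEFs after 24 h compound exposure, normalized to propidium iodide signal. Activity is expressed as % positive cells, thresholded with 7.5 nM rapamycin.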

Activity change, negative = inhibition, inactive:
COc1ccc(N2CCN(CCCNC(=O)C3COc4ccccc4C3)CC2)cc1 (stereo unspecified) -7.19%
O=C(c1ccc2c(Cl)c3c(nc2c1)CCCC3)N1CCN(c2ccc(Cl)cc2)CC1 1.39%
O=C(Nc1nc2c(F)cc(F)cc2s1)c1ccc(S(=O)(=O)N2CCc3ccccc32)cc1 -10.2%
CCOc1ccc(-n2c(=O)c3c4c(sc3n(CC(=O)NC(C)CC)c2=O)CCCCC4)cc1 (stereo unspecified) -0.173%
COC(=O)c1ccc(N2C(=O)Cc3cc(OC)c(OC)cc3C2c2ccc(F)cc2)cc1 (stereo unspecified) 7.61%
CCN1C(C(=O)c2ccccc2)=C(OC(=O)COc2ccc(C)cc2)c2ccccc2S1(=O)=O -12.4%
Cc1ccc(CNC(=O)CSc2nc3c(sc4ccccc43)c(=O)n2CCCC(=O)NCCO)cc1 -9.07%
O=C(Nc1ccc(F)cc1)Nc1csc2c1CCCC2 -0.644%
CCOc1ccc(CCn2c3c(c(=O)[nH]c2=O)C(NC(=O)c2cccc(F)c2)(C(F)(F)F)C(=O)N3)cc1OCC (stereo unspecified) 1.35%
Cc1c(CCNC(=O)c2c(F)cccc2F)sc2nc(-c3ccc(F)cc3)nn12 -3.08%
O=C(Cc1ccc(-c2ccccc2)cc1)NCCS(=O)(=O)N1CCN(c2ccc(F)cc2)CC1 -12.8%
Cn1ncc2c(N3CCN(c4ccc(F)cc4)CC3)ncnc21 7.37%
COc1cc(-c2nc3sccn3c2Nc2c(C)cccc2C)ccc1O 3.13%
O=C1Cc2cc(S(=O)(=O)N3CCN(c4cccc(Cl)c4)CC3)ccc2N1 1.35%
CC(=O)N1CCCc2ccc(NS(=O)(=O)c3cccc(Cl)c3)cc21 0%
CCn1c(C(=O)NCCc2ccc(S(N)(=O)=O)cc2)cc2sc(Cl)cc21 -2.7%
CC(=O)N1CCCC1c1nc2ccccc2n1Cc1ccccc1Cl (stereo unspecified) -6.22%
Cc1cc(Nc2ccc(Br)cc2)nc(C)n1 -7.36%
Cc1cccc(C)c1-n1ncc(C(=O)NCCCN2CCC(C)CC2)c1C1CCN(C(=O)OC(C)(C)C)CC1 -3.5%
CCC1CN(C(=O)N2CCC(C(=O)NCCc3ccc(OC)cc3OC)CC2)c2cc(C)ccc2O1 (stereo unspecified) -19.3%
Cc1cccc(OCc2nc(CC(=O)Nc3ccc(Cl)cc3)cs2)c1 2.09%
COc1cccc(CSc2nc3ccncc3n2CC(=O)Nc2ccc(OC)c(OC)c2OC)c1 -3.49%
CCOC(=O)c1cnc2c(ccc3ccccc32)c1Nc1ccc(C(C)=O)cc1 -20.4%
COc1ccccc1CNC(=O)Cc1csc2nc(-c3ccc(F)cc3)cn12 -15.3%
O=S(=O)(c1ccc(Cl)cc1)c1nc(-c2cccs2)oc1N1CCCCC1 6.79%
CCc1cc2c(cc3c(=O)n(CC(=O)NC(C)c4ccccc4)ncn32)s1 (stereo unspecified) -0.405%
COc1cccc(NC(=O)CCN2C(=O)c3ccccc3Sc3ncccc32)c1 -11.4%
Cc1cc(C)nc(-n2nc(C)c3c2N(Cc2ccccc2F)C(=O)CC3c2ccc(Cl)cc2)n1 (stereo unspecified) -9.39%
CCOC(=O)c1sc2ccccc2c1S(=O)(=O)NCc1ccccc1OC 1.34%
CCc1ccccc1NC(=O)C1CCN(S(=O)(=O)c2cn(C)cn2)CC1 1.37%
Cc1cccc(C(=O)Nc2cc3c(cc2C)n(C)c(=O)n3C)c1 22.3%
CCC(=O)N1CCc2cc(Br)cc(S(=O)(=O)NCCc3cccc(C)c3)c21 -1.47%
O=C(Nc1sc2c(c1C(=O)NCc1ccco1)CCCC2)c1cc(=O)c2cc(Cl)ccc2o1 -2.89%
Cc1cc(C)c2nc(C)cc(Nc3cccc(C(=O)O)c3)c2c1 -0.595%
CCOc1cc(C(=O)Nc2cc3c(cc2N2CCCC2)n(C)c(=O)c(=O)n3C)cc(OCC)c1OCC 2.85%
CCc1ccc(S(=O)(=O)Nc2cccc(-c3ccc(N4CCCCC4)nn3)c2)s1 -0.234%
O=C1C(c2ccc(F)cc2)N(CCc2ccc(Cl)cc2)C(=O)CN1C1CCCCC1 (stereo unspecified) 10.4%
COc1ccccc1NC(=O)Cn1c(C)cc(C)c(C#N)c1=O -7.95%
O=C(CCCCn1c(=O)c2ccccc2n(Cc2cccc(F)c2)c1=O)NCCc1ccccc1 -4.97%
Cc1ccc(C)c(NC(=O)CN2C(=O)CCc3cc(S(=O)(=O)N4CCCCC4)ccc32)c1 18.2%
CC(=O)N1CCC(N(Cc2ccc(C)o2)C(=O)Nc2cccc(C(F)(F)F)c2)CC1 1.88%
Cc1ccc2c(c1)-c1nc(-c3ccc4c(c3)NC(=O)CO4)cc(-c3ccccc3)c1CO2 2.31%
COc1ccc(NC(=O)Nc2cc(-c3cn4cccnc4n3)ccc2C)cc1 2.43%
O=C(NC1CCN(Cc2ccccc2)CC1)c1ccc(Cn2c(=O)c3ccccc3n(Cc3ccc(Cl)cc3)c2=O)cc1 -3%
CC(=O)N1CCc2c(sc3c2c(=O)n(-c2ccccc2)c(=O)n3CC(=O)c2ccccc2)C1 -3.7%
CC(=O)N1CCc2cc(S(=O)(=O)NC(Cc3ccccc3)C(=O)NCc3ccccc3)ccc21 (stereo unspecified) -0.495%
Cc1ccc(Cn2c(=O)n(Cc3ccccc3)c(=O)c3oc4ccccc4c32)cc1 5.68%
CC(=O)Nc1ccc(NC(=O)c2ccc3c(c2)N(Cc2cccc(Cl)c2)C(=O)c2ccccc2S3=O)cc1 (stereo unspecified) 1.7%
COCc1nc2ccccc2n1Cc1ccc(C(C)(C)C)cc1 -17.1%
COc1ccc2[nH]c3c(c2c1)CCN(C(=O)CCC1CCCC1)C3c1ccc(F)cc1 (stereo unspecified) -13.4%
O=C(CC1N=C2c3ccccc3N=C(SCc3ccc(F)cc3)N2C1=O)NCCc1ccccc1 (stereo unspecified) -2.67%
Cc1cccc(Cn2c(-c3ccccc3)nc3ccccc32)c1 -1.77%
O=C(CSc1nccn1-c1ccc(F)cc1)Nc1nc2ccccc2s1 -0.534%
Cc1ccc(-c2cnc(C3CC3)o2)cc1S(=O)(=O)Nc1cccc(C)c1C 0%
CC(C)(C)OC(=O)N1CCC(c2c(C(=O)N3CCN(c4ccccn4)CC3)cnn2-c2ccc(F)cc2F)CC1 6.88%
CCN1CCN(c2csc3ccc(Br)cc3c2=O)CC1 0.127%
COc1ccc(NC(=O)C2CCCN(S(=O)(=O)c3c(C)[nH]c(=O)[nH]c3=O)C2)cc1OC (stereo unspecified) -15.4%
CCn1c(=O)c2cc(C(=O)NCc3cc(OC)ccc3OC)sc2c2ccccc21 -4.3%
Cc1ccc(NC(=O)C2CCCN(c3ncnc4c3nc3n4CCCCC3)C2)c(Br)c1 (stereo unspecified) 1.02%
CC(C)(C)c1ccc(C(=O)NCC(=O)OCc2cc(=O)n3nc(C4CC4)sc3n2)cc1 1.02%
COc1ccc(NC(=O)c2oc3ccccc3c2NC(=O)c2cc(=O)c3cc(Cl)ccc3o2)cc1 -3.12%
